Experimental data taken from paper PMC10638516 (Acta Pharmaceutica Sinica. B, 2023).

Legend:
hα1 = type: binding, rat; details: read-out: Ki hα1; Table 6 selectivity profile
hD3R [1] = target: T1, hD3R (Homo sapiens, UniProt P35462); experiment: ERK1/2 phosphorylation; type: cell-based
BV2 cells = experiment: CCK8 cytotoxicity test, BV2; type: cell-based; details: 24 h, CCK8, compared with RPD
ICR mice [2] = experiment: Tail suspension test; type: in vivo, mouse
h5-HT2A = h5-HT2A (Homo sapiens, UniProt P28223); experiment: biochemical; type: binding
mice [3] = experiment: Serum prolactin after repeated oral dosing; type: in vivo, mouse; details: after 30 days p.o. dosing, 23j, 36b 30 mg/kg, RPD 1 mg/kg
hNET = hNET (Homo sapiens, UniProt P23975); experiment: biochemical; type: binding
hD3R [4] = target: T1, hD3R; experiment: biochemical; type: binding
ICR mice [5] = experiment: Spontaneous locomotor test; details: compounds 30 mg/kg i.p., RPD 1 mg/kg, 15 min
h5-HT6 = h5-HT6 (Homo sapiens, UniProt P50406); experiment: biochemical; type: binding
ICR mice [6] = experiment: Apomorphine-induced climbing; type: in vivo, mouse; details: i.p., apomorphine 1.0 mg/kg s.c.
[7] = Pharmacokinetics study in ICR mice; type: in vivo; details: mouse, plasma
hD5 = hD5 (Homo sapiens, UniProt P21918); experiment: biochemical; type: binding
h5-HT1B = h5-HT1B (Homo sapiens, UniProt P28222); experiment: biochemical; type: binding
hD2R [8] = target: T2, hD2R (Homo sapiens, UniProt P14416); experiment: biochemical; type: binding
mice [9] = experiment: Acute toxicity assay in mice; type: in vivo, mouse; details: i.p., up to 600 mg/kg
hERG channel = hERG channel (Homo sapiens, UniProt Q12809); experiment: hERG channel automated patch clamp; type: cell-based; details: hERG inhibition IC50, patch clamp, tested three times
[10] = BBB penetration study in ICR mice; type: in vivo, mouse; details: for concentration at 0.5 h / concentration at 2 h / Kp at 0.5 h / Kp at 2 h: ICR, mouse; for Kp at 0.5 h: Brain/plasma ratio at 0.5 h; for Kp at 2 h: Brain/plasma ratio at 2.0 h
mice [11] = experiment: Catalepsy test in mice; type: in vivo, mouse
[12] = Weight gain on repeated oral dosing; type: in vivo, mouse; details: mice, p.o. once daily 30 days; 23j, 36b 30 mg/kg; RPD 1 mg/kg
HEK293T cells = experiment: CCK8 cytotoxicity test, HEK293T; type: cell-based; details: 24 h, CCK8, compared with RPD
ICR mice [13] = experiment: Forced swimming test; type: in vivo, mouse; details: 36b 3, 10, 30 mg/kg, DLX 15 mg/kg
hD4 = target: T3, hD4 (Homo sapiens, UniProt P21917); experiment: biochemical; type: binding
T3 sequence (P21917 1-419): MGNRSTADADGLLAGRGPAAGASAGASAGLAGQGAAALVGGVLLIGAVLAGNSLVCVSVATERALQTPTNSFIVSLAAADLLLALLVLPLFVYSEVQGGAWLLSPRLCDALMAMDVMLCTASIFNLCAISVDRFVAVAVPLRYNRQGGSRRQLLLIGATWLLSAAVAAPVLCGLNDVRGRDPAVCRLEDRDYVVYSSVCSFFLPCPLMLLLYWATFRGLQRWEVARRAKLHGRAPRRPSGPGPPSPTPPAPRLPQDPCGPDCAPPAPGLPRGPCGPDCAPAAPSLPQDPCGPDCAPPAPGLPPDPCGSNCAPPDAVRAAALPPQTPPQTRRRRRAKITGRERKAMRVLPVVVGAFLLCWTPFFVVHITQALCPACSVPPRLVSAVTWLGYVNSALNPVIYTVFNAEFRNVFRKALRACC

PC12 cells = experiment: CCK8 cytotoxicity test, PC12; type: cell-based; details: 24 h
hH1 = hH1 (Cavia porcellus, UniProt P31389); experiment: biochemical; type: binding, guinea pig
hD2R [14] = target: T2, hD2R; type: cell-based
hD1 = hD1 (Homo sapiens, UniProt P21728); experiment: biochemical; type: binding
hSERT = hSERT (Homo sapiens, UniProt P31645); experiment: biochemical; type: binding
Catalepsy test in mice = type: in vivo, mouse; details: mouse, in vivo, ip, Catalepsy ED50 i.p.
[15] = brain, iv, 3 mg/kg, 3 mg/kg i.v.
[16] = brain, po, 10 mg/kg, 10 mg/kg p.o.

T1 sequence (P35462 whole entry): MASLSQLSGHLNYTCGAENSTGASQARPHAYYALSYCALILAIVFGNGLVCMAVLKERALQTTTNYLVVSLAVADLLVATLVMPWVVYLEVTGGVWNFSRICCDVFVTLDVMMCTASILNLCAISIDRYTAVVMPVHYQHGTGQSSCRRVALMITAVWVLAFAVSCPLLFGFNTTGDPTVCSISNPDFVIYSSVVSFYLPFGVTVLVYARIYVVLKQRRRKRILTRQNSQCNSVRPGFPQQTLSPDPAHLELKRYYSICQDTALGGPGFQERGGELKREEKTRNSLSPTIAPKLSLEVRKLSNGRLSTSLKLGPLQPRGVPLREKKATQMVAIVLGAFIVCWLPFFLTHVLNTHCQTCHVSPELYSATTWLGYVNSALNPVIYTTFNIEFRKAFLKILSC
T2 sequence (P14416 whole entry): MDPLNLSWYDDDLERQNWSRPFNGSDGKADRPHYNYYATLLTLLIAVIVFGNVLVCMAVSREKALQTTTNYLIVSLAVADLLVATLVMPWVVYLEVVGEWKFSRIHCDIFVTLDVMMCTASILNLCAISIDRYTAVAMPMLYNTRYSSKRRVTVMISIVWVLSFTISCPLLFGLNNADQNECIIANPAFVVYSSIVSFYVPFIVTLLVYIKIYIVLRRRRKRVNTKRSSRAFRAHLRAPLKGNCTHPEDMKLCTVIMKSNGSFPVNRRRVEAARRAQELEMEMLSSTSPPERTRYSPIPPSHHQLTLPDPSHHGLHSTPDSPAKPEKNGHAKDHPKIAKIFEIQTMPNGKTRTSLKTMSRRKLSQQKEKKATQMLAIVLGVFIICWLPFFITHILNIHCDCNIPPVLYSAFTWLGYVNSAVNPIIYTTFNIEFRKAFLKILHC
Chain of UniProt P23975 (P23975 whole entry): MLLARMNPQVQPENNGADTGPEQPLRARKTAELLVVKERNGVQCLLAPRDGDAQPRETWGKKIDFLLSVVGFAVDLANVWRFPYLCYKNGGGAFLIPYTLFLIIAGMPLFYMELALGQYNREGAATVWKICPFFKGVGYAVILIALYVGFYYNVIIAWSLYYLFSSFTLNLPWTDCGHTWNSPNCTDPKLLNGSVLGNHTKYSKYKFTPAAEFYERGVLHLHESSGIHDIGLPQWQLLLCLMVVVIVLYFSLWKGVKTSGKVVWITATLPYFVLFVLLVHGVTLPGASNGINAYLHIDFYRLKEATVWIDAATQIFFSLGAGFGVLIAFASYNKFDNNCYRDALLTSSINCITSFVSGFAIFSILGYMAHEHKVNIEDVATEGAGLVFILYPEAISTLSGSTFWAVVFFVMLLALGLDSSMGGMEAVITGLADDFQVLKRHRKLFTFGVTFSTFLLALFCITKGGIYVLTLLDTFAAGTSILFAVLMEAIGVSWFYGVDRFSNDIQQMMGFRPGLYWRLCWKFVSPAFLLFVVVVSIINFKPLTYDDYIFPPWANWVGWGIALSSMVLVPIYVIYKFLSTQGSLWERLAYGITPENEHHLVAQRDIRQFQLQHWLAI
Chain of UniProt P21728 (P21728 whole entry): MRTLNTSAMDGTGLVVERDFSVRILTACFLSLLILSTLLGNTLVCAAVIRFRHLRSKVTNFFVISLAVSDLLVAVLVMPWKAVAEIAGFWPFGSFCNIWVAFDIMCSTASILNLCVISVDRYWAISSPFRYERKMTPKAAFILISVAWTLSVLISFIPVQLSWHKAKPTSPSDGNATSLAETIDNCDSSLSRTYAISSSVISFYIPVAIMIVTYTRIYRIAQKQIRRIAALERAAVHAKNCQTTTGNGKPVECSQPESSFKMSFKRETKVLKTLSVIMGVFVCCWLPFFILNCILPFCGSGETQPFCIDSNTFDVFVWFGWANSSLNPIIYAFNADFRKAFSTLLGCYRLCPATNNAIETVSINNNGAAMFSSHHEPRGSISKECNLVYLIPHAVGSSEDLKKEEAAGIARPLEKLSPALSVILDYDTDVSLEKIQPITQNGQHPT
Chain of UniProt P31645 (P31645 whole entry): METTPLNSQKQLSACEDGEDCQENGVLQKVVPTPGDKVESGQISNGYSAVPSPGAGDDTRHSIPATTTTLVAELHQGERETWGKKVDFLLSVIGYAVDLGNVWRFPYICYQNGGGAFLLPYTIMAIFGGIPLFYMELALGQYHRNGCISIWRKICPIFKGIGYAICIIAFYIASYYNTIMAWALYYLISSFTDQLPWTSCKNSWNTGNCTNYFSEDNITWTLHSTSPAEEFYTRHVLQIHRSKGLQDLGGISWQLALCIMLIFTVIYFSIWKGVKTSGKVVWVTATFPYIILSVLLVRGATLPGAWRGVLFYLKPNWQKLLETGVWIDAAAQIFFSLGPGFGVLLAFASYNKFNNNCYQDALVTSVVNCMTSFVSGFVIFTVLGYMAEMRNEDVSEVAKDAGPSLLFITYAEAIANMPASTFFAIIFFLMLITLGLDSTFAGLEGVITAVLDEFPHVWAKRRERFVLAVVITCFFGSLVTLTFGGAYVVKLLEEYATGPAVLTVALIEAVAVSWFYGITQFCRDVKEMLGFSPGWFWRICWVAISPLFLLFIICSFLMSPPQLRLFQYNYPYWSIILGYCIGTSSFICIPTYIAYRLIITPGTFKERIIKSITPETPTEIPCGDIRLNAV
Chain of UniProt P28223 (P28223 whole entry): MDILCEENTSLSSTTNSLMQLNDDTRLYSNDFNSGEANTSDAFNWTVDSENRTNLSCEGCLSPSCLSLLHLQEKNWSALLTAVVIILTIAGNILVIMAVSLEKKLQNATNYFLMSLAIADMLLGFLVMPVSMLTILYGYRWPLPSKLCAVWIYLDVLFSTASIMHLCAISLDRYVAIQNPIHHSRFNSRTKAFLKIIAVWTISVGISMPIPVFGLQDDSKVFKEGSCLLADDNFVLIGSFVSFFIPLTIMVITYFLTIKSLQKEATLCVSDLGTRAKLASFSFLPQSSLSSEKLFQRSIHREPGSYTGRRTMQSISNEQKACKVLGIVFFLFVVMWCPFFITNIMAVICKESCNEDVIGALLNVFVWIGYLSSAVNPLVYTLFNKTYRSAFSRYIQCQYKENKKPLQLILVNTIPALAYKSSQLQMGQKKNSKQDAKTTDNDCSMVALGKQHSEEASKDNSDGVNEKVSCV
Chain of UniProt P50406 (P50406 whole entry): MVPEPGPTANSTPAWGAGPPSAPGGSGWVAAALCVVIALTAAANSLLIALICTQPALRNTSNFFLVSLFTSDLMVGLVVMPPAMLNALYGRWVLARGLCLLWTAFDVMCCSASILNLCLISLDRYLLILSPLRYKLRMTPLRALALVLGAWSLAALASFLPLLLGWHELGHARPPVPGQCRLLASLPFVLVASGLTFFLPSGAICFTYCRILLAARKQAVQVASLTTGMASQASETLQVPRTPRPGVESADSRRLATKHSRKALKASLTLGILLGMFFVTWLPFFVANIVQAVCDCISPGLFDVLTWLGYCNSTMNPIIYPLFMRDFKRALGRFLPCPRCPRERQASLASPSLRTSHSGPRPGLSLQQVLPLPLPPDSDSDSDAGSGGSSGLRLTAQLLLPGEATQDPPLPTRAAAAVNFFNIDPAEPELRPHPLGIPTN
Chain of UniProt P31389 (P31389 whole entry): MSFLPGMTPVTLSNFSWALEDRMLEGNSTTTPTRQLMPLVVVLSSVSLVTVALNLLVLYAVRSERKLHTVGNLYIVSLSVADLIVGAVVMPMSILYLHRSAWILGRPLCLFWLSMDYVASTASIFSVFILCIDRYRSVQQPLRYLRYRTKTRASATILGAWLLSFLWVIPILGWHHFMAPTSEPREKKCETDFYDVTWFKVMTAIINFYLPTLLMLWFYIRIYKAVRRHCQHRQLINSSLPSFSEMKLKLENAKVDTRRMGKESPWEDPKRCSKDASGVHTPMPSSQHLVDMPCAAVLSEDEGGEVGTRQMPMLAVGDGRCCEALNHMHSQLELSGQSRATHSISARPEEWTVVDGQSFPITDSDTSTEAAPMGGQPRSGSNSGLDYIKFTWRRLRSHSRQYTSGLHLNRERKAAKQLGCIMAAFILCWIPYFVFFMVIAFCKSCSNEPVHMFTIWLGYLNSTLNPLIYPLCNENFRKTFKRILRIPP
Chain of UniProt P28222 (P28222 whole entry): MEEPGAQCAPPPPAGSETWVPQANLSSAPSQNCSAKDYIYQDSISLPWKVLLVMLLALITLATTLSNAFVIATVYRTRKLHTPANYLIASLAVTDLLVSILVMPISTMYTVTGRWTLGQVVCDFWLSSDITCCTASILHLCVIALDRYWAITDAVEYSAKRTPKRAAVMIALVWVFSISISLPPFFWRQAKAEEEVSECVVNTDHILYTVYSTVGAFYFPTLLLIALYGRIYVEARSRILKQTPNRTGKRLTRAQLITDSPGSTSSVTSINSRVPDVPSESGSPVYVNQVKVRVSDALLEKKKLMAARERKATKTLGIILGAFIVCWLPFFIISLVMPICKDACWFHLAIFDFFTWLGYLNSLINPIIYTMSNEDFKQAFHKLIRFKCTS
Chain of UniProt P21918 (P21918 whole entry): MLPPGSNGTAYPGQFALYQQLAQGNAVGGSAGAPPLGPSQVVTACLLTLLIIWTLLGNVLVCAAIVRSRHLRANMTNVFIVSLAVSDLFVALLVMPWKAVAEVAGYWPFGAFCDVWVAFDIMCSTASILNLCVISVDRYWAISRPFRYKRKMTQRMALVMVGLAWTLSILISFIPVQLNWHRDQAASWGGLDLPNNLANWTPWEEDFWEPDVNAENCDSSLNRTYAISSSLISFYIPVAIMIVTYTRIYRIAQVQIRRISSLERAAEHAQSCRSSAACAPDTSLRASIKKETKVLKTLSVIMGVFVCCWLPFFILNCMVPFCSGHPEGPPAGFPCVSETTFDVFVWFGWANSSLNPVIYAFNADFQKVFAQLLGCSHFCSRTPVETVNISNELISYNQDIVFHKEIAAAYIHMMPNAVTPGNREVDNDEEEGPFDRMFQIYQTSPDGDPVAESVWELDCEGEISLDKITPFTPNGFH

## Cn1c2c(c3ccccc31)CN(CCCCNC(=O)c1nc3ccccc3[nH]1)CC2 [36b]
hα1
  Ki: 2220 nM
hD3R [1]; CHO-hD3R cells, quinpirole at 20 μmol/L
  effect on ERK1/2 phosphorylation mediated by hD3R, compound alone (agonist mode): no influence
hD3R [1]; in the presence of 20 μmol/L dopamine
  competitive antagonism of ERK1/2 phosphorylation mediated by D3R: dose-dependently inhibit
BV2 cells
  effect on the viability of BV2: less effects
ICR mice [2]; 3 mg/kg
  immobility time in the TST, 3 mg/kg group: did not show significant differences
ICR mice [2]; 36b 3, 10, 30 mg/kg
  latency by first observed TST immobility: only 30 mg/kg group was found to be prolonged
ICR mice [2]; 36b 3, 10, 30 mg/kg, DLX 15 mg/kg
  immobility time in the TST: dose-dependently decreased
h5-HT2A
  Ki: 398 nM
Mice [3]
  serum prolactin level: nonsignificant serum prolactin change
hNET
  Ki: > 10 µM
hD3R [4]; Ki hD3, three experiments, means ± SEM
  Ki: 16.8 ± 1.8 nM
hD3R [4]; read-out: % inhibition at 10 μmol/L hD3, 10 μmol/L test compound
  inhibition at 10 µM: 97.9 ± 3.6%
ICR mice [5]
  effect on spontaneous locomotion: no influences
h5-HT6
  Ki: 10.3 µM
ICR mice [6]
  inhibition of apomorphine-induced climbing: dose-dependently inhibit
[7]; iv, 3 mg/kg
  AUC: 677 ng·h/mL
  Cmax: 1230 ng/mL
  MRT: 0.51 h
  Tmax: 4.8 min
  Vd: 2.33 L/kg
  clearance: 73.7 mL/min/kg
[7]; iv, 3 mg/kg, t1/2, ICR mice, 3 mg/kg i.v., single dose
  half-life: 52.2 min
[7]; oral, 10 mg/kg
  bioavailability: 39.7%
[7]; po, 10 mg/kg
  AUC: 896 ng·h/mL
  Cmax: 505 ng/mL
  MRT: 1.7 h
  Tmax: 15 min
hD5
  Ki: > 10 µM
h5-HT1B
  Ki: 138 nM
hD2R [8]
  Ki: > 10 µM
hD2R [8]; read-out: % inhibition at 10 μmol/L hD2
  inhibition at 10 µM: 19.6 ± 5.7%
Mice [9]
  acute toxicity / tolerance: well tolerant
hERG channel
  IC50: 1750 nM
[10]; 3 mg/kg i.v., 3 mg/kg
  Brain concentration at 0.5 h: 1552.86 ng/mL
[10]; 10 mg/kg p.o., 10 mg/kg
  Brain concentration at 0.5 h: 310.17 ng/mL
  Brain concentration at 2.0 h: 181.65 ng/mL
[10]; brain, iv, 3 mg/kg, Brain concentration at 0.5 h, 3 mg/kg i.v.
  concentration at 0.5 h: 1550 ng/mL
[10]; brain, iv, 3 mg/kg, Brain concentration at 2.0 h, 3 mg/kg i.v.
  concentration at 2 h: 139 ng/mL
[10]; [15]
  Kp at 0.5 h: 4.5
  Kp at 2 h: 5.57
[10]; brain, po, 10 mg/kg, Brain concentration at 0.5 h, 10 mg/kg p.o.
  concentration at 0.5 h: 310 ng/mL
[10]; brain, po, 10 mg/kg, Brain concentration at 2.0 h, 10 mg/kg p.o.
  concentration at 2 h: 180 ng/mL
[10]; [16]
  Kp at 0.5 h: 0.74
  Kp at 2 h: 0.97
[10]; plasma, iv, 3 mg/kg, Plasma concentration at 0.5 h, 3 mg/kg i.v.
  concentration at 0.5 h: 345 ng/mL
[10]; plasma, iv, 3 mg/kg, Plasma concentration at 2.0 h, 3 mg/kg i.v.
  concentration at 2 h: 24.9 ng/mL
[10]; plasma, po, 10 mg/kg, Plasma concentration at 0.5 h, 10 mg/kg p.o.
  concentration at 0.5 h: 421 ng/mL
[10]; plasma, po, 10 mg/kg, Plasma concentration at 2.0 h, 10 mg/kg p.o.
  concentration at 2 h: 188 ng/mL
Mice [11]
  Catalepsy MED i.p. (minimum effective dose): ≥480.0 mg/kg
Mice [11]; i.p.
  Catalepsy peak effect (percent of cataleptic animals): 0.0%
Mice [11]; i.p., 23j up to 240 mg/kg, 36a/b/f up to 480 mg/kg
  catalepsy under all tested doses: did not elicit catalepsy
[12]
  body weight / weight gain: No influence on body weight
HEK293T cells
  effect on the viability of HEK293T: less effects
ICR mice [13]
  immobility time of FST: 30 mg/kg group showed activities, but lower dose groups did not
hD4
  Ki: 8.81 µM
PC12 cells
  cytotoxicity in PC12 cells: best safety profiles
hH1
  Ki: 2310 nM
hD2R [14]
  effect on ERK1/2 phosphorylation mediated by hD2R, compound alone (agonist mode): weak partial agonism
hD1
  Ki: > 10 µM
hSERT
  Ki: > 10 µM

## Cc1nc2n(c(=O)c1CCN1CCC(c3noc4cc(F)ccc34)CC1)CCCC2 [Risperidone, reference compound]
Mice [11]
  Catalepsy MED i.p. (minimum effective dose): 2.4 mg/kg
Mice [11]; i.p.
  Catalepsy peak effect (percent of cataleptic animals): 100.0%
Catalepsy test in mice
  ED50: ~1.51 mg/kg
